# Source: publication PMC4336329 (PLoS ONE, 2015)
# Out of some 310,000 compounds screened, about 14,000 (4.5%) showed an effect of 50% or more. The effect is printed as a negative number. The list shows a part of the results.
# Molecular target: human ether-à-go-go-related gene (hERG) potassium channel (human, UniProt Q12809)
# Experiment: primary screen, population patch clamp on CHO cells stably expressing hERG
# 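Also: peak tail current of the secondary pulse compared with the same well before compound.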
# human ether-à-go-go-related gene (hERG) potassium channel, sequence (Q12809 whole entry, looked up): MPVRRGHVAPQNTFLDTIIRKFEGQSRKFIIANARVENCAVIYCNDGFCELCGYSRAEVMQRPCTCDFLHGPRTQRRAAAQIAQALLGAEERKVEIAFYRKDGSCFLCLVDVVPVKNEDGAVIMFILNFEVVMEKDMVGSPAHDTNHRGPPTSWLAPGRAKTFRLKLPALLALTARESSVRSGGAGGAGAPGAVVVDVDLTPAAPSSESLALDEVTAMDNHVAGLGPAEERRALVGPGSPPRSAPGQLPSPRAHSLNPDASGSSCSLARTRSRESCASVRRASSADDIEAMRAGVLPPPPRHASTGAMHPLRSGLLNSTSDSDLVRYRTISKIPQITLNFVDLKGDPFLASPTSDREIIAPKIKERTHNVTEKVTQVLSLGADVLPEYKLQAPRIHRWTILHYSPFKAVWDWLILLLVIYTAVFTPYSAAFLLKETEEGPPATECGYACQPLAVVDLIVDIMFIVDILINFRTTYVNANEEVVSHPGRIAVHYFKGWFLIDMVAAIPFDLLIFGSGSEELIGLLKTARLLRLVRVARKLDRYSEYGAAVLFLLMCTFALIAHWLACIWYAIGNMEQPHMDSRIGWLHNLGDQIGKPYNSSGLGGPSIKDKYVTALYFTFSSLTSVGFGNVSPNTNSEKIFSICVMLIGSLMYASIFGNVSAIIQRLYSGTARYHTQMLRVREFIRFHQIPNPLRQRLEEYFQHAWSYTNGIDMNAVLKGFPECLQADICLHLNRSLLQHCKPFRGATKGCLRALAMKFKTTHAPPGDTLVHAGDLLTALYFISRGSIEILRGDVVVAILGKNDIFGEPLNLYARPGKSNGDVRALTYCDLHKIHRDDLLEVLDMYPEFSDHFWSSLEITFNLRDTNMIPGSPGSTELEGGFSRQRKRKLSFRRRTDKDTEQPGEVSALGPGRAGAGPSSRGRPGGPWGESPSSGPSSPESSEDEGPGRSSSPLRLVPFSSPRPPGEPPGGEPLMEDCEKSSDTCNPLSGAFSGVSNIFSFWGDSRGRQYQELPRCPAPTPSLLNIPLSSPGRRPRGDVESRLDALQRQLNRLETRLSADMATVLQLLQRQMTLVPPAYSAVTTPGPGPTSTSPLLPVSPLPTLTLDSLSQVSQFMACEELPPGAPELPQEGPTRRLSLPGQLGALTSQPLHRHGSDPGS
row,Compound,"hERG current change (%, negative = inhibition) at 10uM [%]"
1,Cc1cccc(NC(=O)CSc2nc(N)c(NC(=O)c3cccs3)c(=O)[nH]2)c1,13.4
2,COc1ccccc1C(=O)NNC(=O)C(=O)NC(C)(C)C,25
3,Cc1ccc(NC(=O)Nc2nnc(Cc3ccc(F)cc3)s2)cc1,14
4,CS(=O)(=O)N1CCN(Cc2ccccc2C(F)(F)F)CC1,4.37
5,COc1cc(C)c(S(=O)(=O)NC2CC(C)(C)NC(C)(C)C2)cc1C,4.58
6,Cc1ccnc(NS(=O)(=O)c2ccc(NC(=O)Cc3ccc(F)cc3)cc2)n1,14.2
7,COCCCNC(=O)/C=C/c1cccc(Cl)c1,-2.88
8,O=C(CSCc1ccc([N+](=O)[O-])cc1)NCCSCc1ccccc1,-70.1
9,Cc1cc(C)c(OCCCCN(C)C)c(Br)c1.O=C(O)C(=O)O,-41.5
10,O=C(C1=C[C@@H](c2ccc(C(F)(F)F)cc2)C[C@@H](OCc2ccc(CO)cc2)O1)N1CCOCC1,-14.6
11,CC(=O)Nc1ccc(C(=O)N/C(=C/c2ccccc2)C(=O)NCc2ccco2)cc1,-10
12,CCN(CC)Cc1c(C(=O)N/N=C/c2ccc(OCc3ccccc3C)cc2)nnn1-c1nonc1N,-41.5
13,Cc1c(C(=O)N(Cc2ccc(Cl)cc2)C2CCS(=O)(=O)C2)oc2ccccc12 (stereo not drawn),-4.85
14,CC(=O)Nc1cccc(C(=O)N/N=C/c2cccc(C)n2)c1,19.9
15,COc1ccc(-n2cnnc2SCC(=O)Nc2nc(C)c(Cl)cc2Cl)cc1,-33.7
16,COCc1c(C(=O)N/N=C\c2ccccn2)nnn1-c1nonc1N,7.18
17,CCOC(=O)N1CCc2c(sc3c2c(=O)n(Cc2ccccc2)c(=O)n3Cc2cccc(C)c2)C1,-4.2
18,O=C(c1ccccc1F)N1CCC(N2CCCCCC2)CC1,-10.3
19,O=c1c(F)cn(C2CCCO2)c(=O)n1Cc1c(Cl)cccc1Cl (stereo not drawn),-10.8
20,CCN(CC)C(=O)OCc1c(-c2cccc(OC)c2)ncc2ccccc12,-22.1
21,COc1ccc(C(=O)NCC(c2cccnc2)N2CCN(c3ccc(F)cc3)CC2)cc1OC (stereo not drawn),-46.1
22,O=C(CSc1n[nH]c(=O)n1C1CC1)c1ccc(F)cc1,4.93

row,Compound,"hERG current change (%, negative = inhibition) at 10uM [%]"
1,CCn1ncc(/C=N\NC(=O)c2csc3ccccc23)c1C,4.65
2,COc1ccc2c(Cl)c(C(N)=O)sc2c1,1.91
3,Nc1cccc(-c2nc3ncccc3o2)c1,20.2
4,Cc1cccc(C(=O)NCC(c2cccs2)N2CCOCC2)c1 (stereo not drawn),14.6
5,CCCCn1c(N)c(N(CC(C)C)C(=O)CSc2nnc(C)n2-c2ccc(OC)cc2)c(=O)[nH]c1=O,10.7
6,NC(=O)c1cc(S(=O)(=O)N2CCCC2)ccc1OCCOc1ccccc1,2.15
7,CCOc1ccc(-c2c(C(=O)N/N=C/c3cccc(Br)c3)nnn2-c2nonc2N)cc1,-3.31
8,CN(CCOc1ccc(-c2ccn(S(=O)(=O)c3cccc4ccccc34)n2)cc1)c1ccccn1,13.9
9,Cc1nnc(SCC(=O)N(C)c2ccccc2)n1-n1cccc1,11.1
10,CC1CCCC(C)N1C(=O)Cn1cnc2cc([N+](=O)[O-])ccc2c1=O (stereo not drawn),-9.04
11,Cc1cccc(CCN2CCN=C2Nc2ccccc2)c1,-16.8
12,NC(N)=NS(=O)(=O)c1ccc(NC(=S)NC(=O)c2ccncc2)cc1,2.9
13,O=C(NC1CCCC1)C(c1ccccn1)N(Cc1ccc(F)cc1)C(=O)c1csnn1 (stereo not drawn),-13.9
14,O=C(CCC(=O)N1CCN(S(=O)(=O)c2ccc(Cl)cc2)CC1)NCc1ccccc1,-14.8
15,CC1(C)CC(=O)C2=C(C1)N(c1ccc(F)cc1)C(=O)C2(NC(=O)c1ccccc1)C(F)(F)F (stereo not drawn),13.4
16,Cc1ccc(OCc2nnc(SCC(=O)O)n2-c2ccccc2)cc1,16.3
17,N#CCc1nc(C(c2ccccc2)c2ccccc2)no1,4.55
18,O=c1c2ccccc2c(C=NCCO)c(O)n1-c1ccccc1,7.97
19,Cn1nnnc1Sc1ncnc2scc(-c3ccccc3Br)c12,-4.66
20,COc1cc(C(=S)N2CCCCC2)ccc1O,19.4
21,CC(=O)c1cccc(NC(=O)CCCOc2ccc(C)cc2)c1,-11.3
22,CCN(CC)CCCNC(=O)CCn1nc(-c2ccccc2)ccc1=O,-56.8

row,Compound,"hERG current change (%, negative = inhibition) at 10uM [%]"
1,Cc1nc2n(n1)C(O)c1cc([N+](=O)[O-])ccc1S2 (stereo not drawn),21.3
2,COc1ccc(-c2nc3ccccc3c(=O)n2CCCn2ccnc2)cc1,-49
3,COc1ccccc1CNC(=O)c1c(-c2ccccc2)nn(-c2ccccc2)c1C,-23.1
4,COc1cccc(-n2ccnc2SCC(=O)Nc2ccccc2)c1,-5.46
5,Cc1cc(N2CCN(c3ccccc3)CC2)nc(NCc2ccccc2)n1,4.25
6,CCN1C(=O)C(CC(=O)N2CCN(C(c3ccccc3)c3ccccc3)CC2)N(CC)C1=O (stereo not drawn),1.18
7,Cc1cccc(C(=O)Nc2nnc(SCC(=O)NC3CC3)s2)c1,8.55
8,O=C1CCCN1CCCNc1nc2c(S(=O)(=O)c3ccccc3)nnn2c2ccc(Cl)cc12,-25.4
9,COc1ccc(C=O)cc1COc1c(F)c(F)cc(F)c1F,-15.7
10,O=C(NCCCn1ccnc1)C1CC2CCC1C2 (stereo not drawn),0.144
11,CCC1CCCCN1C(=S)Nc1ccc(SC(F)F)cc1 (stereo not drawn),-30
12,O=C(CN1CCN(S(=O)(=O)c2ccc(F)c(F)c2)CC1)Nc1ccccc1C(=O)NC1CC1,-72.3
13,CCOC(=O)c1ccc(NC(=O)N2CCN(Cc3cccc(F)c3)CC2)cc1,-9.28
14,CC(C)CN(C(=O)Cn1nnc(-c2ccc(F)cc2)n1)C1CCS(=O)(=O)C1 (stereo not drawn),6.95
15,CCNC(=S)N(CCc1c(C)[nH]c2ccccc12)Cc1cc(OC)c(OC)c(OC)c1,-3.86
16,CCCC(=O)Nc1nnc(SCC(=O)NCc2ccco2)s1,0.447
17,Cc1ccc2occ(-c3nn[nH]n3)c(=O)c2c1,11.4
18,Cc1cccc(C(=O)NCC(=O)NC2CCN(Cc3ccccc3)CC2)c1,-7.99
19,CCOc1ccc2[nH]c(=O)c(CN(Cc3nnnn3Cc3ccco3)C3CCCCC3)cc2c1,5.58
20,Cc1cc(C)n(-c2ccc3nnc(C)n3n2)n1,10.5
21,O=C(COC(=O)c1ccc(F)cc1F)NC(=O)Nc1ccc2c(c1)OCCO2,1.4
22,Cc1cc(C)c2cccc(NC(=S)NC(=O)c3ccccc3)c2n1,-14.5

row,Compound,"hERG current change (%, negative = inhibition) at 10uM [%]"
1,Cc1ccc(/C([O-])=C(/C(=S)NCc2ccc3c(c2)OCO3)[n+]2ccc(N(C)C)cc2)c(C)c1,-9.09
2,Cc1cccc(C)c1Nc1nnc(SCc2cn3cccc(C)c3n2)s1,-43.1
3,COC(=O)CSc1nnc(CNc2ccc(F)cc2)o1,14.5
4,CC(C)CC(=O)C1=C(O)C(=O)N(Cc2ccccc2)C1c1ccccc1 (stereo not drawn),14.5
5,COCCNC(=O)/C(C#N)=C/c1ccc(-c2ccc(S(=O)(=O)N3CCOCC3)cc2)o1,-33.2
6,O=[N+]([O-])c1ccc(-c2nnc(-c3ccccc3)c(NCCCO)n2)cc1,-67.3
7,Cc1ccc(Cn2cccc(-c3nc4ccccc4s3)c2=O)cc1,11.2
8,Br.N=C1c2ccccc2CN1NC(=O)c1ccc(Cl)cc1,1.22
9,CC(Oc1ccc(Cl)cc1Cl)C(=O)NC1CCSC1=O (stereo not drawn),-17.3
10,Cc1noc(C)c1CC(=O)NC1CC(C)(C)Cc2c1cnn2-c1ccccc1 (stereo not drawn),6.7
11,CCOC(=O)N1CCC(N2CCN(S(=O)(=O)CC)CC2)CC1.O=C(O)C(=O)O,-1.19
12,Cc1ccc(CN2CCN(/N=C/c3ccc(C)s3)CC2)c(C)c1,-5.96
13,CCc1noc(C)c1C(=O)NCCc1ccc(S(N)(=O)=O)cc1,6.85
14,C=CCn1c(CSCc2ccc(F)cc2)n[nH]c1=S,11.6
15,O=C(Nc1ccccc1C(=O)Nc1ccccn1)c1ccc([N+](=O)[O-])cc1,-18
16,CN(C)Cc1cc(C(C)(C)c2cc(CN(C)C)c(O)c(CN(C)C)c2)cc(CN(C)C)c1O,-1.21
17,CC(=O)OC1CC2(C)/C(=N\O)CCC2C2CCc3cc(O)ccc3C12.CCO (stereo not drawn),-5.1
18,COc1ccc(N2CCN(C(=O)CSc3nnc4c(C)cc5cc(C)ccc5n34)CC2)cc1,-21.2
19,COc1ccc(-c2nc(C)ncc2-c2csc(C)n2)c(O)c1,11
20,CC(C)Cc1nc2oc3c(Cl)ncnc3c2c2c1CCC2,-3.91
21,CCOC(=O)c1c(C)[nH]c(C(=O)COC(=O)/C=C/c2ccc(O)c(OC)c2)c1C,2.87
